# Results: the supplement of paper PMC9446081
# The whole screen tested about 39,000 compounds, of which about 220 (0.56%) showed activity. This is one part of the list.
# Test system: Escherichia coli K-12 BW25113
# Experiment: relative growth (OD600 normalised to plate interquartile mean) (fraction); higher = less growth inhibition, active = 0.2 or less
# Conditions: 50 µM; LB; incubation time: overnight (16-24 h)
# 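Further: static incubation at 37 °C against the wild-type strain, values averaged over two biological replicates.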
row,Compound,relative growth
1,C[C@@H]1CN([C@H](C)CO)C(=O)c2cc(NC(=O)C3CCCCC3)ccc2O[C@@H](C)CCCCO[C@H]1CN(C)S(=O)(=O)c1ccc(F)cc1,inactive: 0.976
2,CC(=O)Oc1c(C)c(C)c2c(c1C)CCC(C)(CCCC(C)CCCC(C)CCCC(C)C)O2 (stereo not drawn) [alpha-TOCHOPHERYL ACETATE [4mM]],inactive: 1.07
3,CO[C@H]1CN(C)C(=O)c2ccc(NC(=O)C3CC3)cc2OC[C@H](C)N(C(=O)CN2CCOCC2)C[C@H]1C,inactive: 0.997
4,COc1ccc(S(=O)(=O)Nc2ccc3c(c2)C(=O)N([C@H](C)CO)C[C@@H](C)[C@H](CN(C)C(=O)C2CCCCC2)OCCCC[C@H](C)O3)cc1,inactive: 1.04
5,Cc1ccc(S(=O)(=O)Nc2ccc3c(c2)CC(=O)N([C@@H](C)CO)C[C@H](C)[C@H](CN(C)S(C)(=O)=O)O3)cc1,inactive: 0.989
6,Nc1cccc2c1CN(C1CCC(=O)NC1=O)C2=O (centres undefined),inactive: 1.13
7,CO[C@H]1/C=C\O[C@@]2(C)Oc3c(C)c(O)c4c(c3C2=O)[C@]2(C=C(NC(=O)/C(C)=C\C=C/[C@@H](C)[C@@H](O)[C@@H](C)[C@@H](O)[C@@H](C)[C@@H](OC(C)=O)[C@@H]1C)C4=O)OCC(=O)O2,inactive: 0.905
8,c1cnc(N2CC[N+]3(CCCC3)CC2)nc1,inactive: 0.991
9,Cc1cccc2c3c(ccc12)C1=C(C(=O)C3=O)C(C)CO1 (centres undefined),inactive: 1.13
10,CC(C)CC(=O)N[C@H](C(=O)N[C@H](C(=O)N[C@@H](CC(C)C)[C@@H](O)CC(=O)N[C@@H](C)C(=O)N[C@@H](CC(C)C)[C@@H](O)CC(=O)O)C(C)C)C(C)C,inactive: 1.02
11,CCS(=O)(=O)NCc1nccc(N(C)C)n1,inactive: 1.01
12,CCCCCCCCCCCCCCCCCCCCCCCCC(=O)O,inactive: 0.989
13,COc1ccc(CN(C)C[C@H]2Oc3ccc(NC(=O)Nc4cccc5ccccc45)cc3CC(=O)N([C@H](C)CO)C[C@H]2C)cc1,inactive: 1.01
14,CCN(CC)c1ccc(N2CC=C[C@@]34O[C@@H]5/C=C\CC[C@H](C)OC(=O)[C@@H]5[C@H]3C(=O)N(CCO)[C@@H]4C2=O)cc1,inactive: 0.986
15,C[C@H]1CN([C@@H](C)CO)C(=O)c2cc(C#CCc3ccccc3)cnc2O[C@H]1CN(C)C(=O)C1CCOCC1,inactive: 1.01
16,COc1ccc(S(=O)(=O)Nc2ccc3c(c2)CC(=O)N([C@H](C)CO)C[C@@H](C)[C@H](CN(C)S(=O)(=O)c2cccs2)O3)cc1,inactive: 1.01
17,O=C(CN1CCOCC1)NCC[C@@H]1CC[C@H](NC(=O)Cc2ccccn2)[C@@H](CO)O1,inactive: 1
18,C[C@@H]1O[C@@H](O[C@H]2[C@H](O[C@H]3[C@H](O)[C@@H](C(=O)O)O[C@@H](O[C@H]4CC[C@]5(C)[C@H]6CC[C@]78OC[C@@]9(CCC(C)(C)C[C@@H]97)[C@H](O)C[C@@]8(C)[C@]6(C)CC[C@H]5C4(C)C)[C@@H]3OC3O[C@H](CO)[C@@H](O)[C@H](O)[C@H]3O)O[C@H](CO)[C@H](O)[C@@H]2O)[C@H](O)[C@H](O)[C@H]1O (some centres undefined),inactive: 1
19,Cc1ccccc1S(=O)(=O)N1[C@@H]2c3cccc(=O)n3C[C@H]1[C@H](CO)[C@H]2C(=O)N1CCOCC1,inactive: 0.981
20,C[C@H]1CCCCO[C@H](CN(C)CC2CC2)[C@@H](C)CN([C@@H](C)CO)C(=O)c2cc(NC(=O)Nc3ccccc3)ccc2O1,inactive: 0.987

row,Compound,relative growth
1,Cc1noc(C)c1S(=O)(=O)Nc1ccc2c(c1)C(=O)N([C@@H](C)CO)C[C@H](C)[C@@H](CN(C)C(=O)Nc1ccccc1)O2,inactive: 0.998
2,CC(C)NC(=O)Nc1cccc2c1O[C@@H](CN(C)Cc1ccc(C(=O)O)cc1)[C@@H](C)CN([C@@H](C)CO)C2=O,inactive: 0.97
3,C[C@@H]1CN([C@H](C)CO)C(=O)Cc2cc(NC(=O)NC3CCCCC3)ccc2O[C@H]1CN(C)Cc1ccc(C(F)(F)F)cc1,inactive: 0.997
4,C[C@@H]1CN([C@@H](C)CO)C(=O)c2cccc(NC(=O)C3CC3)c2O[C@H]1CN(C)S(=O)(=O)c1cccs1,inactive: 0.966
5,CC(C)(C)OC(=O)CC[C@]12N=C(c3ccc(OCCCO)cc3)O[C@H]1c1ccccc1N(Cc1ccccc1)C2=O,inactive: 0.983
6,COc1nc(N)nc2c1ncn2[C@@H]1O[C@H](CO[P@@](=O)(N[C@@H](C)C(=O)OCC(C)(C)C)Oc2cccc3ccccc23)[C@@H](O)[C@@]1(C)O,inactive: 1.01
7,CC(C)C#Cc1ccc2c(c1)O[C@H](CN(C)S(=O)(=O)c1cn(C)cn1)[C@@H](C)CN([C@H](C)CO)S2(=O)=O,inactive: 0.995
8,C[C@@H]1CCCCO[C@H](CN(C)S(=O)(=O)c2ccc(Cl)cc2)[C@@H](C)CN([C@@H](C)CO)C(=O)c2cc(NC(=O)c3ccncc3)ccc2O1,inactive: 0.987
9,C[C@H](CO)N1C[C@H](C)[C@H](CN(C)Cc2ccncc2)OCCCC[C@H](C)Oc2ccc(NC(=O)Nc3cccc4ccccc34)cc2C1=O,inactive: 1.03
10,O=C(C[C@@H]1CC[C@H](NS(=O)(=O)c2ccc(F)cc2)[C@H](CO)O1)NCc1ccc(Cl)c(Cl)c1,inactive: 1.02
11,CC(C)(C)C(=O)N1CCNCC1,inactive: 0.996
12,Cl.NC(Cc1ccc(Cl)cc1)C(=O)O (racemic),inactive: 0.986
13,COc1ccc(S(=O)(=O)N(C)C[C@H]2Oc3ccc(NC(=O)Cc4ccccc4)cc3C(=O)N([C@H](C)CO)C[C@@H]2C)cc1,inactive: 1.01
14,C[C@@H]1CCCCO[C@@H](CN(C)Cc2ccc(Cl)c(Cl)c2)[C@@H](C)CN([C@@H](C)CO)C(=O)c2cc(NS(=O)(=O)c3cn(C)cn3)ccc2O1,inactive: 0.996
15,C[C@@H]1CN([C@@H](C)CO)C(=O)c2cccc(NC(=O)c3ccc(-c4nccs4)cc3)c2O[C@@H]1CN(C)S(C)(=O)=O,inactive: 1.02
16,CCN(CC)c1ccc(N2CC=C[C@@]34O[C@@H]5C=CCOC(=O)[C@@H]5[C@H]3C(=O)N([C@@H](CO)C(C)C)[C@@H]4C2=O)cc1,inactive: 0.973
17,C[C@H](CO)N1C[C@H](C)[C@H](CN(C)C(=O)Nc2ccc(F)cc2)Oc2ncc(Br)cc2C1=O,inactive: 0.974
18,C[C@H](CO)N1C[C@H](C)[C@@H](CN(C)C(=O)NC2CCCCC2)Oc2ccc(NC(=O)CCCN(C)C)cc2C1=O,inactive: 1.01
19,Cc1noc(C)c1NC(=O)N(C)C[C@@H]1Oc2c(NS(=O)(=O)c3ccccc3)cccc2C(=O)N([C@H](C)CO)C[C@@H]1C,inactive: 0.987
20,Cc1noc(C)c1S(=O)(=O)N(C)C[C@H]1Oc2ccc(NC(=O)CCCN(C)C)cc2C(=O)N([C@H](C)CO)C[C@@H]1C,inactive: 0.989

row,Compound,relative growth
1,O=C(C[C@@H]1C[C@H]2c3cc(NC(=O)C4CCOCC4)ccc3O[C@H]2[C@@H](CO)O1)NCc1ccc2c(c1)OCO2,inactive: 1.02
2,COc1cc(CN2CCC(C(=O)N[C@@H](c3ccc(-c4ccccc4)cc3)c3cnccn3)CC2)cc(OC)c1,inactive: 1.02
3,C[C@H](CO)N1C[C@H](C)[C@@H](CN(C)Cc2ccc3c(c2)OCO3)OCCCC[C@H](C)Oc2ccc(NC(=O)Nc3ccc(F)cc3)cc2C1=O,inactive: 1.03
4,Cc1oc(C(C)(C)C)cc1C(=O)Nc1ccc(C(C)C)cc1,inactive: 1
5,C[C@H]1CN([C@@H](C)CO)S(=O)(=O)c2ccc(C#CCN(C)C)cc2O[C@@H]1CN(C)Cc1ccncc1,inactive: 1.02
6,C[C@@H]1CN([C@H](C)CO)C(=O)c2cc(NC(=O)Cc3ccccc3)ccc2O[C@H]1CN(C)S(=O)(=O)c1cccs1,inactive: 0.989
7,C[C@@H]1CCCCO[C@@H](CN(C)S(=O)(=O)c2ccccc2)[C@@H](C)CN([C@H](C)CO)C(=O)c2cc(NC(=O)CCCCCC(=O)Nc3ccccc3N)ccc2O1,inactive: 0.992
8,Cc1ccc(S(=O)(=O)C[C@H](C)N2CCOCC2)c(S(=O)(=O)C[C@@H](C)N2CCOCC2)c1,inactive: 1.01
9,NC1CCN(C(=O)c2c[nH]c3ccccc23)CC1,inactive: 1.01
10,C[C@@H]1CCCCO[C@@H](CN(C)C(=O)Cc2ccccc2)[C@@H](C)CN([C@@H](C)CO)C(=O)c2cc(NS(=O)(=O)c3ccc(F)cc3)ccc2O1,inactive: 0.943
11,Cc1noc(C)c1NC(=O)Nc1ccc2c(c1)C(=O)N([C@H](C)CO)C[C@@H](C)[C@@H](CN(C)C(=O)NC(C)C)O2,inactive: 0.962
12,O=C(C[C@H]1C=C[C@H](NC(=O)c2ccncc2)[C@@H](CO)O1)NCc1ccncn1,inactive: 0.973
13,CNC(=O)CN1CCOC[C@]2(CCCN(C(C)=O)C2)C1,inactive: 1
14,CN(C)/C=N/C(=S)N1CCOCC1,inactive: 1.01
15,Cc1noc(C)c1NC(=O)Nc1ccc2c(c1)C(=O)N([C@@H](C)CO)C[C@H](C)[C@H](CN(C)Cc1ccncc1)OCCCC[C@@H](C)O2,inactive: 0.987
16,COc1cccc(NC(=O)N(C)C[C@@H]2Oc3ncc(Br)cc3C(=O)N([C@@H](C)CO)C[C@H]2C)c1,inactive: 0.994
17,CC(C)C#Cc1ccc2c(c1)O[C@@H](CN(C)S(=O)(=O)c1cn(C)cn1)[C@@H](C)CN([C@H](C)CO)S2(=O)=O,inactive: 0.971
18,Cc1ccc(S(=O)(=O)N[C@@H]2CC[C@@H](CC(=O)NCc3ccc(Cl)c(Cl)c3)O[C@H]2CO)cc1,inactive: 1.01
19,COc1ccc(NC(=O)Nc2ccc3c(c2)C(=O)N([C@H](C)CO)C[C@@H](C)[C@@H](CN(C)C(=O)CCC(F)(F)F)OCCCC[C@H](C)O3)cc1,inactive: 0.996
